From PubChem BioAssay AID602310 (National Center for Advancing Translational Sciences (NCATS), 2012)
The whole screen tested about 410,000 compounds, of which about 310 (0.076%) were called active. The inconclusive results got no clear call from the source; some entries with a clear call stand among them for comparison. The call rests on the fitted dose curve; in most records, active means well fitted curve in the direction sought with a large enough effect; inconclusive means small, poorly fitted or top-dose-only effect; inactive means flat fitted curve, though single readings scatter. A potency beside an inconclusive call is a rough fit, not a confirmed value.

target: DNA dC->dU-editing enzyme APOBEC-3G (Homo sapiens) (UniProt Q9HC16); assay: qHTS for Inhibitors of Vif-A3G Interactions: qHTS; details: HeLa A3G-eYFP + Vif (tagged APOBEC3G with the HIV-1 protein that degrades it), YFP fluorescence, overnight; series mostly up to 46.1 µM; activity, negative = active: at the top concentration; further: nearly all actives have a fitted effect of over 60% in size;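 on activity, negative = active: hits raise eYFP signal because A3G escapes Vif-driven loss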
How it was run: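 Read-out is eYFP fluorescence (Ex 488/Em 500-530) from Vif-expressing HeLa A3G-eYFP cells; more signal means A3G escaped Vif-mediated degradation. Cells plated overnight, compound pinned in, incubated overnight at 37 deg C.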
On the % scale 0 is the no-effect control and ±100 the full control effect; potency means the concentration at half of the fitted maximal effect; tags describe the fitted curve by direction and shape.

Sequence of UniProt Q9HC16 (Q9HC16 whole entry, looked up): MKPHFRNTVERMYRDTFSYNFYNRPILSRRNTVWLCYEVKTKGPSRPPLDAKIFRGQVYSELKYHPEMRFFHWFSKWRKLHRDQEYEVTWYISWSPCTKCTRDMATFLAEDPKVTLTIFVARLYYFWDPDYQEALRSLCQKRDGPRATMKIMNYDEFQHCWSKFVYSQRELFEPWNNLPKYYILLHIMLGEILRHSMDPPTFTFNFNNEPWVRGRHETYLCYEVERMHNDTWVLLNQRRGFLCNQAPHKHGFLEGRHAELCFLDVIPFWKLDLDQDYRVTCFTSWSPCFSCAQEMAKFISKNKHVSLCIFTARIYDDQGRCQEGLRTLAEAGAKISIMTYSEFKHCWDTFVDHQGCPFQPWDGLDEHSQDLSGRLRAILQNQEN

Structure (SMILES)	Potency	activity, negative = active
Cc1cccc(-n2ncc3c(NCc4ccco4)ncnc32)c1	inconclusive: 7.08 µM [inhibitor, full curve]	–
COC1=C(OC)C(=O)C(Sc2ccc3ccccc3c2)=CC1=O	inconclusive: 12.6 µM [inhibitor, partial curve]	–
Cc1ccc(C2CC(=O)NC(SCC(=O)OCc3ccccc3)=C2C#N)o1 (centres undefined)	inconclusive: 8.91 µM [inhibitor, partial curve]	–
O=c1oc(-c2ccc([N+](=O)[O-])cc2)nc2ccccc12	–	inactive: -1.71%
Cc1ccc(/C=N/NC(=O)CCCOc2ccc(Cl)cc2Cl)cc1	inconclusive: 4.47 µM [inhibitor, full curve]	–
COCCOC(=O)c1[nH]c2c(c1C)C(=O)CC(c1ccc(F)cc1)C2 (centres undefined)	inconclusive: 4.47 µM [inhibitor, partial curve, poor fit]	–
COc1ccc2c(Cn3cnc4cc([N+](=O)[O-])ccc4c3=O)cc(=O)oc2c1	inconclusive: 3.55 µM [inhibitor, full curve, poor fit]	–
Cc1cc(/C=C2\SC(=S)N(Cc3ccco3)C2=O)c(C)n1-c1cccnc1	active: 5.62 µM	–
COc1ccc(-n2nc3c(N4CCC(C(=O)NCc5ccccc5C)CC4)nnc(C)c3c2C)cc1	inconclusive: 6.31 µM [inhibitor, full curve]	–
COc1ccc(NC(=O)CCC(=O)N/N=C/c2ccc([N+](=O)[O-])s2)cc1	inconclusive: 35.5 µM [inhibitor, single point]	–
COc1ccc([C@H]2CC(=O)C=C(c3cc(Br)ccc3OC)C2)cc1	inconclusive: 2.82 µM [inhibitor, full curve, poor fit]	–
Cn1ncc(SCc2ccccc2)c(Cl)c1=O	–	inactive: 1.3%
CCOc1ccc(C2c3c(-c4cc(C)ccc4O)n[nH]c3C(=O)N2Cc2cccnc2)cc1OCC (centres undefined)	–	inactive: -8.22%
O=C(NCc1ccco1)c1ccccc1Nc1ccc(F)cc1	inconclusive: 31.6 µM [inhibitor, single point]	–
COc1ccc(NC(=O)C2=C(C)Nc3nc(SCc4ccc(Cl)cc4)nn3C2c2cccc(OC)c2OC)cc1 (centres undefined)	–	inactive: -2.31%
Cc1cc2c(cc1S(=O)(=O)Nc1cc(C(F)(F)F)cc(C(F)(F)F)c1)OCC(=O)N2	–	inactive: -7.34%
CCCCCCCCCCCC[n+]1ccc(C)c2ccccc21	inconclusive: 22.4 µM [inhibitor, single point]	–
CN(c1cc2c(c3c1ccn3C)C1CCC2O1)C1CCCCC1 (centres undefined)	inconclusive: 14.1 µM [inhibitor, single point]	–
COc1cccc(C(C(=O)NC2CCCCC2)N(C(=O)c2ccco2)c2ccc(-n3cnnn3)c(C)c2)c1 (centres undefined)	–	inactive: 0.356%
COc1ccc(C(C[N+](=O)[O-])c2c(-c3ccccc3)cc3ccccn23)cc1 (centres undefined)	inconclusive: 25.1 µM [inhibitor, single point]	–
CCc1ccc(C2C(C#N)=C(N)Oc3cc(N)ccc32)cc1 (centres undefined)	inconclusive: 35.5 µM [inhibitor, single point]	–
CCOc1ccc(N2C(=O)/C(=C/c3ccco3)N(C)C2=S)cc1	–	inactive: 1.38%

Structure (SMILES)	Potency	activity, negative = active
CN(C)/C=C/C(=O)c1cnc(-c2ccccc2)s1	–	inactive: -8.43%
Cc1cc2[nH]c(=O)c(=O)[nH]c2cc1S(=O)(=O)N1CCN(c2cccc(Cl)c2)CC1	inactive	–
CC(=O)Nc1ccc(S(=O)(=O)N2c3ccc(F)cc3CCC2C)cc1 (centres undefined)	inconclusive: 3.16 µM [inhibitor, full curve, poor fit]	–
C/C(=N\NC(=O)c1ccc(O)cc1)c1cccc(NC(=O)c2ccccc2C)c1	inconclusive: 22.4 µM [inhibitor, single point]	–
Cc1ccc(NC(=O)CCc2c[nH]c3ccccc23)nc1	inconclusive: 2.51 µM [inhibitor, partial curve, poor fit]	–
COc1ccc2nc3c(cc2c1)c(NC(=O)C1CCCO1)nn3CC(C)C (centres undefined)	inconclusive: 20 µM [inhibitor, single point]	–
CC1(C(=O)Nc2ccc(Cl)cc2)Cc2c(-c3ccc4c(c3)OCO4)ccnc2O1 (centres undefined)	inconclusive: 10 µM [inhibitor, partial curve]	–
O=C(c1ccccc1)N1c2nc(-c3ccco3)nn2C2(CCCCC2)[C@@H]2CCCC[C@@H]21	–	inactive: -3.72%
CCOc1ccccc1NC(=O)C(=O)Nc1ccc2nc3n(c(=O)c2c1)CCCCC3	–	inactive: -0.55%
COc1cc(/C=C(/C(=O)c2cccs2)c2nc3ccccc3[nH]2)ccc1O	active: 10 µM	–
Cc1ccc(NC(=O)COc2cccc(/C=C3\SC(=S)N(CCC(=O)O)C3=O)c2)cc1Cl	–	inactive: 6.13%
Cc1ccccc1NC(=O)c1nc(S(=O)(=O)Cc2ccccc2F)ncc1Cl	inconclusive: 20 µM [inhibitor, single point]	–
O=C1CSC(=NC2CCCCC2)N1	–	inactive: -8.96%
COc1cc(C(=O)Nc2ccncc2)c([N+](=O)[O-])cc1OC	–	inactive: -7.62%
Nc1ccc(/C=C/c2nccc3ccccc23)cc1	inconclusive: 25.1 µM [inhibitor, single point]	–
CCOCCCNC(=O)c1cc(=O)n(Cc2cccc(C)c2)c2ccccc12	inconclusive: 22.4 µM [inhibitor, single point]	–
Cc1cccc(N2CCN(C(=O)c3ccc(S(=O)(=O)N(C)c4ccccc4)cc3)CC2)c1C	inconclusive: 2.51 µM [inhibitor, partial curve, poor fit]	–
C[C@@H]1C(c2ccccc2)=NN(c2ccccc2)[C@H]1C(=O)N1CCOC1=O	inconclusive: 35.5 µM [inhibitor, single point]	–
CCN1CCN(Cc2ccc(NC(=O)c3ccc(C)c(/C=C/c4cnc(Nc5cc(N6CCNCC6)nc(C)n5)cn4)c3)cc2C(F)(F)F)CC1	inconclusive: 28.2 µM [inhibitor, single point]	–
CCCCN(C(=O)C1CCC(CNS(=O)(=O)c2cccc3nsnc23)CC1)c1ccccc1 (centres undefined)	–	inactive: -3.93%
O[C@H]1C[C@H](c2ccc(Cl)cc2)N(Cc2cccs2)C[C@@H]1n1cc(-c2ccc(F)cc2)nn1	–	inactive: -6.89%
CC1CCN(CC[S-])CC1.O.O.[Cl][Pt]	inconclusive: 25.1 µM [inhibitor, partial curve, poor fit]	–
